We go through 172 sequences from publication PMC10668032.

Some of the results follow. At the low end of the ranking the order means little.

This assay concerns the target SIX1-Q177R homeodomain (UniProt Q15475). The assay is described as follows: universal protein binding microarray. The settings on record: Universal all-10-mer PBM (8x60K, AMADID 030236), 300 nM GST-tagged protein, Alexa Fluor 488 anti-GST; buffer, salt, pH and temperature not stated; high values mean tight binding; most listed sequences are background and not binding sites; double strand, one strand shown.
For GCGTCCAA, the binding signal was -0.115 E-score. In the case of GAGGGATC, the binding signal amounted to 0.213 E-score. For the sequence ACAGGTGA, the binding signal came out at 0.0476 E-score. As for AAACCGCC, the figure is -0.015 E-score; as for ATAAGAGA, -0.263 E-score; as for AGCATCTC, -0.248 E-score. In the case of AGTTATAC, the binding signal was -0.0666 E-score. In the case of CTCTGAAG, the binding signal is -0.0734 E-score. As for CCTTGTAG, the figure is 0.043 E-score; as for CAGCAGAG, -0.102 E-score; as for CGTATGTC, -0.139 E-score. In the case of AGCCTAGA, the binding signal was -0.249 E-score.

As for ACCTCAAG, the binding signal is -0.0542 E-score. Consider ACTGGCAA, for which the binding signal came to 0.00527 E-score. Regarding GGCTACAA, the binding signal was -0.208 E-score. For CAGTTAAC, the binding signal came out at 0.0497 E-score. In the case of TAACTGTA, the binding signal was -0.0917 E-score. In the case of TATACCCA, the binding signal stood at 0.192 E-score. As for AATCGTGA, the figure is -0.127 E-score; as for ACAGTGCT, 0.0383 E-score. As for GCATACAC, the figure is 0.406 E-score; as for GTCAATGA, -0.0608 E-score.

Take ATTCCGCC: the binding signal is -0.186 E-score.

Consider CCCACGAG, for which the binding signal is 0.113 E-score.

On to CGTTAAAC, for which the binding signal amounted to 0.033 E-score. Take GCGGCCAC: the binding signal was -0.17 E-score. To CACACGGG belongs 0.332 E-score; to GTCATCAA, -0.0212 E-score. For the sequence AGAACGCT, the binding signal is -0.179 E-score. As to AAGCAGGT, the binding signal was found to be 0.00317 E-score.

GCGGCGCA: the binding signal worked out at 0.0113 E-score. For the sequence ACAGGAGT, the binding signal came out at 0.196 E-score. Take AACCGCAA: the binding signal was -0.068 E-score.

ATCTCGCG: the binding signal is -0.179 E-score. As for AGACCCCA, the figure is 0.175 E-score. As for GGAGACAC, the figure is 0.397 E-score; as for GCCGACTA, 0.076 E-score; as for CTGCAAAA, -0.0735 E-score.

Regarding AGATCTCC, the binding signal is -0.243 E-score.

On to GCAGGCAA, for which the binding signal is -0.123 E-score. As for AGTCTACG, the figure is -0.145 E-score; as for AAGCGAAT, -0.228 E-score.

Take CTCACCAC: the binding signal was determined as 0.0101 E-score.

In the case of CGGGCCTC, the binding signal was -0.229 E-score. Turning to GATTAGCC, the binding signal is -0.0371 E-score. As for GCTTCACA, the figure is 0.0313 E-score; as for GAGCAATA, -0.0893 E-score.

For the sequence ATCCTTGA, the binding signal is -0.0664 E-score. For GGGGTCAC, the binding signal stood at 0.29 E-score. To TCGAGACA belongs 0.0319 E-score. As for CATAACAC, the figure is 0.426 E-score. As for CCTCGTGA, the figure is -0.131 E-score. In the case of ATTCAATC, the binding signal was -0.0721 E-score. As for ACGGCTGG, the binding signal is -0.0745 E-score. To TTAAAGAA belongs -0.199 E-score; to TATATCAA, 0.0193 E-score. As for CTGCGAGC, the figure is -0.155 E-score; as for ATCGGTGA, 0.0724 E-score; as for AAGCCTTA, -0.237 E-score.

In the case of ACACCAGC, the binding signal turned out to be 0.464 E-score.

Regarding ACTAGAGC, the binding signal amounted to 0.0472 E-score. Regarding CACACGGA, the binding signal was found to be 0.253 E-score. On to CACCTACC, for which the binding signal came out at 0.267 E-score.

CGTAGTAA: the binding signal was -0.111 E-score. To CGTATGAC belongs 0.199 E-score. As for ACTTTCCG, the figure is -0.218 E-score. To AATGCCCC belongs -0.0463 E-score. With GAACAGAA, the binding signal was -0.193 E-score. To CTCTCTTA belongs -0.156 E-score. To ATCGGCGG belongs 0.0227 E-score; to TGGCAAAA, -0.247 E-score; to ATTATGTA, -0.178 E-score.

Turning to ATTGAGCC, the binding signal was -0.148 E-score.

As to ACCTGGGC, the binding signal came out at 0.0617 E-score. As for CCAGCACG, the figure is -0.0225 E-score; as for CCAAGGGC, -0.291 E-score. As for ATATCGAA, the figure is -0.144 E-score; as for GATTACGC, 0.0363 E-score. As for ACGTCGTA, the figure is 0.0312 E-score; as for CGCCATCC, 0.0437 E-score; as for CGTCGCGA, -0.267 E-score. Take CCGTGATC: the binding signal turned out to be 0.165 E-score. As for CGAACGGC, the figure is -0.235 E-score. With ACTCGGCC, the binding signal was 0.07 E-score. Take GGTCGTAA: the binding signal was 0.0564 E-score.

GCCGAGCC: the binding signal was -0.146 E-score. As for CGGACCAA, the figure is -0.075 E-score; as for GAGTACAC, 0.436 E-score. With GGCCGCAA, the binding signal was -0.102 E-score. With CACGGCGG, the binding signal was found to be 0.129 E-score. As for ACTCGCAT, the figure is 0.0974 E-score. As to CGCTACTA, the binding signal is -0.0358 E-score. As for AACTCCCC, the binding signal came out at 0.12 E-score. Regarding ATAAACGG, the binding signal is -0.0183 E-score.

As for GTCTCGGA, the binding signal amounted to 0.0128 E-score. For the sequence AAACAATA, the binding signal was -0.176 E-score. In the case of ACCACCGC, the binding signal came to 0.199 E-score. In the case of TGAGACCA, the binding signal was -0.159 E-score. As for AGGCAAAG, the figure is -0.205 E-score; as for GGAGTATA, 0.136 E-score; as for CCTGGAAG, -0.0497 E-score. In the case of AATATCGG, the binding signal was -0.207 E-score. Take AATAACAT: the binding signal was -0.0761 E-score. Consider CGCGCTGA, for which the binding signal is -0.0914 E-score.

Consider CTTTAATC, for which the binding signal is -0.143 E-score. To GCAAACGA belongs -0.22 E-score. Turning to TATTCACA, the binding signal was found to be 0.208 E-score. For ATCCATGG, the binding signal was determined as 0.0298 E-score. As for CATTAAGG, the figure is -0.0903 E-score; as for CTGTAATA, -0.142 E-score; as for ACGACAGA, 0.0702 E-score. As for ACTTGCGG, the figure is 0.032 E-score; as for CTCGTCCC, -0.112 E-score; as for CGATTCCA, -0.0597 E-score. To CCCTTTTA belongs -0.0363 E-score; to CAACTATA, -0.18 E-score. On to ATGGTCCA, for which the binding signal was -0.0757 E-score. As for CGCCACTA, the figure is 0.0373 E-score; as for GCGTACTA, -0.058 E-score; as for GTGGAGGA, -0.0175 E-score. To AAGGGACT belongs -0.182 E-score; to CAAAGCGC, -0.0271 E-score; to TATGGCAA, -0.239 E-score. To TGTCTAAA belongs 0.199 E-score; to ATGATCTC, -0.232 E-score; to AAATTAGC, -0.0307 E-score.

On to GACGTGGA, for which the binding signal was -0.208 E-score. As for AATGCGCA, the figure is -0.0854 E-score. To GACGCGAA belongs 0.0278 E-score. As for ACCTCATC, the figure is 0.0254 E-score; as for CGCTACCC, 0.119 E-score; as for GATATGGC, -0.0634 E-score. Consider AGGACTAA, for which the binding signal was -0.195 E-score. Consider ATTCTATG, for which the binding signal is -0.055 E-score.

As to CCTCCCCG, the binding signal amounted to 0.0262 E-score.

For ACTCTAGA, the binding signal is -0.109 E-score.

On to GGGTAAGA, for which the binding signal was determined as 0.135 E-score. Consider GCGGATCA, for which the binding signal is 0.119 E-score.

On to ATAGTAAA, for which the binding signal was found to be 0.0805 E-score. As for AACCCCTT, the figure is 0.147 E-score. To ATTCCGAC belongs 0.0927 E-score; to CCGATGGC, -0.0797 E-score. As to ACTTCCCG, the binding signal was -0.0907 E-score. As to CCCTAGTC, the binding signal was 0.167 E-score. As for CACTCTAG, the figure is 0.174 E-score. To ACCAGTCT belongs 0.087 E-score; to GAGGGGTA, 0.277 E-score; to ACGTAGGC, -0.273 E-score.

On to CGTTACAA, for which the binding signal was -0.172 E-score.

Turning to AATCTGAG, the binding signal was -0.0658 E-score. With AGAGCAAT, the binding signal is -0.0855 E-score. As for GGTATCCA, the figure is 0.369 E-score; as for CAAGAACG, -0.0355 E-score. ACCAATTG: the binding signal was -0.0697 E-score. As for AAGCACAG, the figure is -0.00471 E-score; as for ACGGGCGG, 0.159 E-score; as for TACTGGGA, 0.031 E-score. For the sequence AAAACGGT, the binding signal is -0.039 E-score.

For CCCACAAG, the binding signal turned out to be 0.0657 E-score. For CTACTTAC, the binding signal is -0.0716 E-score.

Consider ACGGTTTA, for which the binding signal amounted to 0.158 E-score. Take ATATCTGG: the binding signal was -0.0415 E-score. As for ATCTAAAG, the figure is 0.0222 E-score.

AGATGCCG: the binding signal is -0.00312 E-score.

As for AGCCTAAC, the binding signal was -0.153 E-score. To ATAAAGGA belongs -0.0843 E-score; to GCTAGTCA, -0.258 E-score. Take AAAGGCTC: the binding signal was -0.266 E-score. For the sequence GAGCGTCC, the binding signal was -0.141 E-score. As for CGCAAGCC, the figure is -0.133 E-score; as for AAGTCGGG, -0.0381 E-score; as for AAATTCTC, -0.138 E-score.
